For the assay, the system named is gram positive bacteria. The experiment in a line: Test for antibacterial activity (in words). In kind it is cell-based. As to conditions: gram positive bacteria including Staphylococcus pyogenes, Streptococcus faecalis, pathogenic Mycobacterium species.

In the case of `C=Cc1cc(OC)c2c(c1)c(=O)oc1c2cc(OC)c2c(O)ccc(C3OC(C)C(OC(C)=O)C(N(C)C)C3O)c21` (stereo not shown) [ravidomycin], the “antibacterial activity against gram positive bacteria” value was “adversely affecting the growth of gram positive bacteria”.
